# Experimental data taken from the supplement of paper PMC9446081.
# Screen size: about 39,000 compounds; about 220 (0.56%) showed activity. The list shows a part of the results.
# Tested on: Escherichia coli K-12 BW25113
# Test: relative growth (OD600 normalised to plate interquartile mean) (fraction); higher = less growth inhibition, active = 0.2 or less
# Conditions: 50 µM; LB; incubation time: overnight (16-24 h)
# 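Note: static incubation at 37 °C against the wild-type strain, values averaged over two biological replicates.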
row,SMILES,relative growth
1,C[C@@H]1CN([C@H](C)CO)C(=O)c2cc(NC(=O)Cn3cnnn3)ccc2O[C@@H]1CN(C)Cc1ccc(Oc2ccccc2)cc1,inactive: 1.01
2,Cc1ccsc1C=CC1=NCCCN1C.O=C(O)CC(O)(CC(=O)O)C(=O)O,inactive: 0.986
3,Cc1ccccc1S(=O)(=O)N1C[C@H](O)COC[C@@H]2O[C@H](CC(=O)N3CCOCC3)CC[C@H]21,inactive: 1.01
4,Cc1noc(C)c1S(=O)(=O)Nc1ccc2c(c1)C(=O)N([C@@H](C)CO)C[C@@H](C)[C@@H](CN(C)C)OCCCC[C@H](C)O2,inactive: 0.994
5,CN1C(=O)c2cc(NC(=O)Cc3cccs3)ccc2OC[C@@H]2O[C@H](CC(=O)NCCc3ccncc3)CC[C@@H]21,inactive: 1
6,C[C@H](CO)N1C[C@H](C)[C@H](CN(C)C(=O)Nc2ccc(F)cc2)Oc2ccc(NC(=O)CCN3CCOCC3)cc2C1=O,inactive: 0.969
7,COc1ccc(S(=O)(=O)N(C)C[C@H]2OCCCC[C@@H](C)Oc3ccc(NC(=O)Nc4cccc5ccccc45)cc3C(=O)N([C@H](C)CO)C[C@H]2C)cc1,inactive: 1.04
8,CC(C)NC(=O)N(C)C[C@H]1Oc2ccc(NC(=O)CCC(F)(F)F)cc2CC(=O)N([C@H](C)CO)C[C@@H]1C,inactive: 1.01
9,O=C(Nc1ccc(-c2nc3cc(NC(=O)c4ccccc4[N+](=O)[O-])ccc3o2)cc1)c1ccccc1[N+](=O)[O-],inactive: 0.984
10,C[C@H]1CCCCO[C@@H](CN(C)C(=O)Nc2ccc(C(F)(F)F)cc2)[C@@H](C)CN([C@@H](C)CO)C(=O)c2cc(NC(=O)c3ccccc3)ccc2O1,inactive: 1.02
11,O=C(C[C@@H]1CC[C@H](NS(=O)(=O)c2ccccc2F)[C@H](CO)O1)NCCCN1CCOCC1,inactive: 0.967
12,C[C@@H]1CN([C@H](C)CO)S(=O)(=O)c2ccc(-c3ccncc3)cc2O[C@@H]1CN(C)C(=O)c1ccc2c(c1)OCO2,inactive: 0.978
13,O=C(C[C@H]1CC[C@@H]2[C@H](COC[C@@H](O)CN2C(=O)c2ccccc2)O1)N1CCOCC1,inactive: 0.887
14,Cc1ccccc1-n1cc[nH]c1=S,inactive: 0.968
15,COc1cccc(C#Cc2ccc3c(c2)O[C@@H](CN(C)C(C)=O)[C@H](C)CN([C@@H](C)CO)S3(=O)=O)c1,inactive: 0.945
16,O=C(C[C@H]1C=C[C@H](NC(=O)c2cnccn2)[C@@H](CO)O1)NCc1ccccc1F,inactive: 0.974
17,C#CCN1[C@H](/C=C/C2CC2)[C@H](CCn2cc(-c3ccc(C(=O)NO)s3)nn2)OC(=O)[C@@H]1Cc1ccccc1,inactive: 1.02
18,C[C@@H]1CN([C@H](C)CO)C(=O)c2ccccc2-c2ccccc2CO[C@@H]1CN(C)C(=O)c1cc(Cl)cc(Cl)c1,inactive: 1.02
19,CC(=O)N1[C@@H](CO)[C@H](c2ccccc2)C12CN(C(=O)CN1CCOCC1)C2,inactive: 0.924
20,C[C@@H]1CN([C@H](C)CO)C(=O)c2cc(NC(=O)c3ccccc3)ccc2O[C@@H](C)CCCCO[C@H]1CN(C)C(=O)Nc1ccc(F)cc1,inactive: 1.01
21,N[C@H](C(=O)O)c1ccc(O)c(C(=O)O)c1,inactive: 1.01

row,SMILES,relative growth
1,CO[C@H]1CN(C)C(=O)c2ccc(NC(C)=O)cc2OC[C@H](C)N(S(=O)(=O)c2cn(C)cn2)C[C@H]1C,inactive: 0.98
2,C[C@@H]1CN([C@@H](C)CO)C(=O)c2cc(NC(=O)Nc3ccc4c(c3)OCO4)ccc2O[C@@H](C)CCCCO[C@@H]1CN(C)C(=O)c1ccccc1,inactive: 1.02
3,CN(N=O)C(=O)NC1C(O)OC(CO)C(O)C1O (stereo unspecified),inactive: 0.677
4,O=C(C[C@H]1C=C[C@H](NC(=O)c2cccc(F)c2)[C@H](CO)O1)NCCN1CCCC1,inactive: 0.997
5,OC[C@H]1O[C@H](C#Cc2ccccc2)C=C[C@@H]1O,inactive: 0.941
6,c1ccc(-c2nn[nH]n2)cc1,inactive: 0.978
7,C[C@@H]1CN([C@H](C)CO)S(=O)(=O)c2ccc(C3=CCCC3)cc2O[C@@H]1CN(C)C(=O)c1cnccn1,inactive: 1.01
8,CN1C[C@@H](O)COC[C@H]2O[C@@H](CC(=O)N3CCN(c4ccccc4)CC3)CC[C@@H]21,inactive: 0.989
9,CCCNC(=O)Nc1ccc2c(c1)OC[C@H](C)N(Cc1ccc(-c3ccccn3)cc1)C[C@H](C)[C@@H](OC)CN(C)C2=O,inactive: 1
10,O=C(CCCCCC(=O)Nc1ccccc1O)N/N=C/[C@H](O)[C@@H](O)[C@H](O)[C@H](O)CO[C@H]1O[C@H](CO)[C@H](O)[C@H](O)[C@H]1O,inactive: 1
11,CCS(=O)(=O)N1C[C@]2(CN(Cc3cc(ccc3F)F)[C@H](CO)c3c2c2ccc(cc2n3C)OC)C1,inactive: 1.04
12,COc1ccc(NC(=O)N(C)C[C@H]2OCCCC[C@@H](C)Oc3ccc(NS(=O)(=O)c4cccs4)cc3C(=O)N([C@@H](C)CO)C[C@@H]2C)cc1,inactive: 1
13,Cc1ccc(S(=O)(=O)Nc2ccc3c(c2)C(=O)N([C@@H](C)CO)C[C@@H](C)[C@H](CN(C)C(=O)Nc2c(C)noc2C)OCCCC[C@@H](C)O3)cc1,inactive: 0.99
14,COC(=O)c1cccnc1,inactive: 1
15,CNC(=O)C[C@@H]1CC[C@H]2[C@@H](COC[C@H](O)CN2C(=O)c2ccccn2)O1,inactive: 0.979
16,COCC(=O)N1CC[C@]2(CC1)CN(Cc1ccc3c(c1)OCO3)[C@@H](CO)c1c2c2ccc(cc2n1C)OC,inactive: 1.03
17,O=C(C1=C[C@@H](C2CC2)C[C@@H](OCc2ccc(CO)cc2)O1)N1CCN(Cc2ccc3c(c2)OCO3)CC1,inactive: 1
18,C[C@H](CO)N1C[C@H](C)[C@@H](CN(C)CC2CCOCC2)Oc2cc(C#Cc3ccccc3F)ccc2S1(=O)=O,inactive: 1.03
19,C[C@@H]1CN([C@@H](C)CO)C(=O)Cc2cc(N(C)C)ccc2O[C@@H]1CN(C)S(=O)(=O)c1ccc(Cl)cc1,inactive: 1
20,C[C@@H]1CN([C@H](C)CO)C(=O)Cc2cc(NC(=O)C3CC3)ccc2O[C@H]1CN(C)S(=O)(=O)c1ccc(Cl)cc1,inactive: 0.987
